# Measurements: PubChem BioAssay AID588689 (Southern Research Specialized Biocontainment Screening …, 2011)
# Among all 340,000 compounds or so, about 1,000 (0.29%) were called active. This list was built around the results that the source calls inconclusive (neither active nor inactive); the mix of calls is not that of the screen. Rule as the data show it: inconclusive = inhibition above about 29% without an active follow-up result; inactive = below that.
# Target: Genome polyprotein (Dengue virus type 2 (strain 16681-PDK53)) (UniProt P29991)
# Assay: Dengue-2 NS5 methyltransferase inhibitors, primary screen, biochemical, confirmation dose response (AID 588689)
# Settings: Dengue-2 NS5 methyltransferase capping enzyme assay, at 25 µM, active compounds read high
row,SMILES,inhibition
1,Oc1cccc(/C=N/NC(=S)Nc2cccnc2)c1O,inactive: -2.88%
2,O=c1ccc(-c2ccc(S(=O)(=O)NCc3cccc(Br)c3)s2)n[nH]1,inactive: -1.36%
3,CCOc1cccc(C2C(C(=O)c3ccc(C)o3)=C(O)C(=O)N2c2nccs2)c1 (stereo not given),inconclusive: 52.9%
4,N=C1/C(=C\c2ccc(SCc3ccccc3)o2)C(=O)N=C2SC=NN12,inconclusive: 40.4%
5,CCOCCCn1c(=N)c(C(=O)NCc2ccc3c(c2)OCO3)cc2c(=O)n3cccc(C)c3nc21,inconclusive: 47.4%
6,O=C(Oc1ccc2c(c1)O/C(=C\c1ccncc1)C2=O)c1ccccc1,inconclusive: 66%
7,COc1ccc(/C=C2/SC(c3ccc(C)cc3)=NC2=O)cc1OC,inconclusive: 43.7%
8,CN1CCN(C2=CC3=CC(=C(C#N)C#N)CCC3CC2)CC1 (stereo not given),inconclusive: 151%
9,CCCC1c2ccc(C)n2CCN1C(=O)Nc1ccccc1Cl (stereo not given),inconclusive: 45.5%
10,CCOC(=O)c1c(=O)n(O)c2ccc(OC)cc2[n+]1[O-],inconclusive: 97%
11,CC1(C)CC(=O)C2=C(C1)Nc1ccccc1NC2,inconclusive: 34.6%
12,Cc1ccc(-n2[nH]c(C)c(C=Nc3ccc4[nH]c(=O)[nH]c4c3)c2=O)cc1C,inconclusive: 59.2%
13,CCNc1nc(NCC)n2c(SCC(=O)NC34CC5CC(CC(C5)C3)C4)nnc2n1,inactive: -8.01%
14,Cc1occc1C(=O)N/N=C/C1=C(N2CCOCC2)C(=C\c2ccc(Cl)cc2)/CC1,inconclusive: 42.1%
15,Cc1noc(C)c1CSCC(=O)Nc1cc(Cl)ccc1N1CCCCC1,inconclusive: 102%
16,Cc1oc2c(c1C(=O)c1ccc(Cl)cc1)C(=O)C(=O)c1ccccc1-2,inactive: 28%
17,Cc1ccc2nc(/C(C#N)=C/c3ccc(-c4ccccc4C(=O)O)o3)[nH]c2c1,inconclusive: 170%
18,O=C(c1cccc(S(=O)(=O)N2CCN(c3ccc(F)cc3)CC2)c1)N1CCCC1,inactive: -6.98%
19,COc1cccc(C(=O)NCc2ccc3c(c2)cc(C)n3C)c1,inconclusive: 123%
20,Cc1cc(C)cc(OCC(=O)N/N=C/c2ccccn2)c1,inactive: 6.27%
21,C[C@@H]1CN(C(=O)c2cc(COc3cccc(C(F)(F)F)c3)on2)C[C@H](C)O1,inactive: -9.08%
22,CCOC(=O)/C(C#N)=C\c1ccc(N2CCN(C/C=C/c3ccccc3)CC2)cc1,inconclusive: 38.5%
23,CN1CCN(c2ccc(NS(=O)(=O)c3ccc(Cl)cc3)cn2)CC1,inactive: -7.03%

row,SMILES,inhibition
1,CCC(C)Sc1cc(-c2nc3ccc(Cl)cn3c2NC2CCCCC2)ccc1OC (stereo not given),inactive: -12.6%
2,O=C(OCCN1C(=O)c2cccc3c(N4CCOCC4)ccc(c23)C1=O)c1ccc(Cl)cc1,inconclusive: 153%
3,Cc1ccccc1-n1c(SCc2c(C)noc2C)nnc1-c1cccnc1,inconclusive: 41.8%
4,O=C1/C(=C\c2cc([N+](=O)[O-])ccc2O)SC(=S)N1Cc1ccc(Cl)cc1,inconclusive: 173%
5,O=C(Nc1ccc(-c2nc3ccccc3o2)c(O)c1)c1cc(-n2cnnc2)ccc1Cl,inconclusive: 37.2%
6,O=C(C=Cc1cccc(Cl)c1)c1ccccc1,inactive: -41.2%
7,O=C1/C(=C/c2cccs2)SC(=S)N1c1ccccc1,inactive: -4.85%
8,N#CC1=C(N)SC(N)=C(C#N)C1c1cccc(O)c1,inconclusive: 139%
9,CCOC(=O)N1CCN(c2cc(NCCC(=O)O)c3c4c(onc24)-c2ccccc2C3=O)CC1,inconclusive: 166%
10,COc1cc(N)c2ncccc2c1SC,inconclusive: 31.1%
11,Cn1nc(-c2ccccc2)c2nc3ccccc3nc21,inconclusive: 73.5%
12,COC(=O)c1ccc2c(c1)SC1=C(CCCC1=O)N2,inconclusive: 64.3%
13,O=C(c1ccccc1)c1ccc(O)cc1O,inconclusive: 69.9%
14,NS(=O)(=O)c1ccc(N=Nc2c[nH]c(=O)c(O)c2)cc1,inconclusive: 98.2%
15,C=CCn1c(=O)/c(=C/c2cc(OC)c(OC)c(OC)c2)s/c1=C(/C#N)c1nc2ccccc2n1C,inconclusive: 127%
16,Oc1ccc2ccc3cccc[n+]3c2c1,inconclusive: 166%
17,CCOC(=O)C(C(=O)OCC)c1cc(Br)c2noc3c2c1C(=O)c1ccccc1-3,inconclusive: 62.5%
18,Nc1cccc(N2C(=O)c3cccc4c(N)ccc(c34)C2=O)c1,inconclusive: 172%
19,CCn1c(SCC(=O)NC)nnc1C(C)C,inactive: 4.79%
20,COC(=O)c1cc2c(C)cc3ccc(C)cn3c-2c1C(=O)OC,inconclusive: 71.1%
21,CCn1cc(/C=C/c2cc[n+](C)cc2)c2ccccc21,inconclusive: 171%
22,CCCc1cc(=O)oc2c(CNc3ccc(OCC)cc3)c(O)ccc12,inconclusive: 123%
23,Cc1ccc(Cc2nc(-c3ccncc3)no2)cc1,inactive: -1.78%

row,SMILES,inhibition
1,CCN(CC)c1ccc2cc(-c3nnc(-c4ccccc4)o3)c(=O)oc2c1,inconclusive: 178%
2,CC1=CC2=C(C=O)C(=O)C(C)(O)C(O)C2=CO1 (stereo not given),inconclusive: 70.6%
3,CCC(C)NC(=O)CCSCCC(=O)NC(C)CC (stereo not given),inactive: -4.42%
4,COc1ccc(NC(=O)CSc2nc3c(c(-c4cccs4)c2C#N)CN(C)CC3)cc1OC,inconclusive: 57.2%
5,CCCCCc1nnc(N)s1,inactive: 0%
6,O=S(=O)(Cc1ccccc1)N1CCN(Cc2ccc(F)cc2Cl)CC1,inactive: -4.55%
7,COc1ccc(Nc2nc(-c3cccnc3)nc3ccccc23)cn1,inconclusive: 64.5%
8,N#Cc1c(C(F)(F)F)cc(-c2ccccc2)nc1SCc1nc(N)nc(N2CCOCC2)n1,inconclusive: 156%
9,NCCCC[C@@H]1NC(=O)c2cc([N+](=O)[O-])cc(F)c2NCCCC[C@@H](C(N)=O)NC(=O)CNC1=O,inactive: -4.1%
10,O=S(=O)(Cc1ccccc1)Nc1ccccc1,inactive: 1.96%
11,Cc1cc2nc3c(=O)[nH]c(=S)[nH]c3nc2cc1NC(=O)C(F)(F)F,inconclusive: 128%
12,CCCCn1c(N)c(N(CC(C)C)C(=O)CC2CCCCC2)c(=O)[nH]c1=O,inactive: -11.5%
13,Cc1ccc(S(=O)(=O)Nc2ccc(Br)cc2C(NCC(=O)O)c2ccccc2)cc1 (stereo not given),inactive: -7.12%
14,C[C@H](CO)N1C[C@H](C)[C@@H](CN(C)C(=O)Nc2cc(F)ccc2F)Oc2ncc(-c3cccc(F)c3)cc2C1=O,inactive: 0.58%
15,Cc1cc(O)c(C(C)C)cc1N=Cc1ccccc1O,inactive: 73.5%
16,NC1=Nc2cccc3cccc1c23,inconclusive: 32.6%
17,COc1ccc(N=Cc2c(O)n(-c3cccc(C)n3)c(=O)c3ccccc23)c(OC)c1,inconclusive: 127%
18,CCN1C(=O)/C(=C\c2cn(-c3ccccc3)nc2-c2cccnc2)SC1=S,inactive: 2.99%
19,COC(C[C@@H](O)C[C@H](O)[C@@H](C)OCc1ccccc1)OC,inactive: -8.19%
20,COc1ccc(NC(=O)c2ccc(-c3ccc(C(C)=O)cc3)o2)cn1,inconclusive: 31.2%
21,Oc1ccccc1C1OCC2(CO1)COC(c1ccccc1O)OC2 (stereo not given),inactive: 1.95%
22,Cn1c(=O)c2c(ncn2CC(=O)N2CCc3ccccc3C2)n(C)c1=O,inactive: -0.55%
23,CCCCC1CCC(C(=O)NCC(c2ccco2)N2CCOCC2)CC1 (stereo not given),inactive: -3.1%

row,SMILES,inhibition
1,CN1c2ccccc2N(C)C1(C)c1ccccc1,inconclusive: 29.1%
2,CC(=O)Nc1ccc2nc3c(=O)n(C)c(=O)n(C)c3nc2c1,inconclusive: 111%
3,Cc1ccc(C2=C(O)c3ccccc3C(=O)C2=O)cc1,inactive: 10.5%
4,Oc1ccc(/C=N/n2c(-c3ccccc3)n[nH]c2=S)cc1Br,inactive: 13.5%
5,N#CC1(C#N)C(c2ccccc2)OC23CCCCC2C1(C#N)C(=N)O3 (stereo not given),inconclusive: 33.1%
6,CC(=C\c1ccccc1)/C=C1/SC(=S)N(CCCC(=O)O)C1=O,inactive: 19%
7,COc1ccc(/C=C2\SC(=S)N(CCC(=O)NC3CCCC3)C2=O)cc1OC,inconclusive: 40.3%
8,C=CCOc1ccc(/C=N/NC(=O)C(C)Sc2ccccn2)cc1OC (stereo not given),inactive: -7.22%
9,CS/C(=N\S(=O)(=O)c1cccs1)NC(=O)CSc1nc2ccccc2s1,inconclusive: 50.2%
10,CCCOc1ccc(/C=C/C(=O)OCC(=O)N(C)c2c(N)n(Cc3ccccc3)c(=O)[nH]c2=O)cc1OCC,inactive: 3.69%
11,Cc1oc2c(O)c(O)ccc2c(=O)c1-c1ccccc1,inactive: 1.39%
12,Cc1ccc2c(c1)Sc1c(ccc3ccccc13)N2,inconclusive: 50.7%
13,CCN(CC)c1ccc2cc(-c3nnc(-c4ccncc4)o3)c(=O)oc2c1,inconclusive: 170%
14,O=C(Nc1ccc2oc(=O)ccc2c1)c1cc([N+](=O)[O-])ccc1N1CCOCC1,inactive: -4.64%
15,COC(=O)/C=c1/s/c(=C(\C#N)C(=O)NCc2ccco2)n(-c2ccc(C)cc2)c1=O,inconclusive: 46.5%
16,Cc1ccc(S(=O)c2ccc([N+](=O)[O-])c3nonc23)cc1 (stereo not given),inconclusive: 36.2%
17,Cc1cc(C)c2c(SC(C)C)nc(N)nc2n1,inconclusive: 44.6%
18,O=C(NCc1ccccc1)c1ccc2nc(-c3ccco3)c(-c3ccco3)nc2c1,inconclusive: 67.3%
19,CC(=NCCCNC1CCCCC1)C1=C(O)CC(C)(C)CC1=O,inactive: 10.2%
20,CCCCCC1CC(CC(=O)NC(=S)Nc2ccccc2Cl)C(=O)O1 (stereo not given),inactive: -4.68%
21,CCc1nnc(NC(=O)CCN2C(=O)/C(=C/c3cc(OC)c(OC)c(OC)c3)SC2=S)s1,inconclusive: 30.1%
